From the supplement of paper PMC10037445
The full ranking holds about 2,900 compounds; the median of “IRF Lucia reporter activity, fold change vs agonist alone” is about 0.9, and the highest 2% start at about 2.8. This is one part of the list.

Assays:
[1] = test system: RAW-Dual; test: IRF Lucia reporter activity, fold change vs agonist alone; cytotoxicity flag (confluency mask): not cytotoxic; higher = enhanced IRF activity
Outline: (§1)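 After 50 nL of library stock was delivered by pin tool to RAW-Dual macrophages (50,000 cells/well, DMEM, 384-well plates), a PRR agonist was added 1 h later and the plates were kept at 37 °C, 5% CO2. Twenty hours later, IRF was read from supernatant by QuantiLuc luminescence and NF-κB by QuantiBlue absorbance at 620 nm. Reporter activity is stated as fold change over agonist-alone wells. Wells with IncuCyte confluency under 70% of agonist controls in both mask sets were counted as cytotoxic.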

[2] = test system: RAW-Dual; test: IRF Lucia reporter activity, fold change vs agonist alone; higher = enhanced IRF activity; conditions: library stock concentration (final ~1000-fold dilution): 10 mM, agonist: MPLA (TLR4) […]
Outline: as §1

[3] = test system: RAW-Dual; test: IRF Lucia reporter activity, fold change vs agonist alone; cytotoxicity flag (confluency mask): cytotoxic (confluency <70% of control); higher = enhanced IRF activity
Outline: as §1

[4] = agonist: 3'3'-cGAMP (STING) 10 ug/mL
[5] = cytotoxicity flag (confluency mask): not cytotoxic
[6] = cytotoxicity flag (confluency mask): cytotoxic (confluency <70% of control)

With `Cc1nc2ccc(NC(=O)Nc3ccnc4cccnc34)cc2o1` (library stock concentration (final ~1000-fold dilution): 10 mM) the “IRF Lucia reporter activity” value [1, 4] was 0.172 and the “IRF Lucia reporter activity” value ([1]; agonist: LPS (TLR4) 0.1 ug/mL) was 0.65.

`Cc1nc2ccc(NC(=O)Nc3ccnc4cccnc34)cc2o1` was tested, and the “IRF Lucia reporter activity” value [2, 5] was 0.93.

With `Oc1nc(-c2ccc(C(F)(F)F)cc2)nc2c1CSCC2` the “IRF Lucia reporter activity” value [2, 5] was 0.892.

`Oc1nc(-c2ccc(C(F)(F)F)cc2)nc2c1CSCC2` (library stock concentration (final ~1000-fold dilution): 10 mM) was tested, and the “IRF Lucia reporter activity” value [1, 4] was 0.908 and the “IRF Lucia reporter activity” value ([1]; agonist: LPS (TLR4) 0.1 ug/mL) was 1.1.

`NC(=O)N1c2ccccc2CC(=O)c2ccccc21` was tested, and the “IRF Lucia reporter activity” value [2, 5] was 1.14.

`NC(=O)N1c2ccccc2CC(=O)c2ccccc21` (library stock concentration (final ~1000-fold dilution): 10 mM) was tested, and the “IRF Lucia reporter activity” value [1, 4] was 1.08 and the “IRF Lucia reporter activity” value ([1]; agonist: LPS (TLR4) 0.1 ug/mL) was 0.934.

For `Cc1ccc(-c2ccc(C)cn2)nc1` (library stock concentration (final ~1000-fold dilution): 10 mM), the “IRF Lucia reporter activity” value [1, 4] was 0.792 and the “IRF Lucia reporter activity” value ([1]; agonist: LPS (TLR4) 0.1 ug/mL) was 0.907.

For `Cc1ccc(-c2ccc(C)cn2)nc1`, the “IRF Lucia reporter activity” value [2, 5] was 1.1.

For `CC(NCCC(c1ccccc1)c1ccccc1)c1ccccc1.Cl` (stereo unspecified) (library stock concentration (final ~1000-fold dilution): 10 mM), the “IRF Lucia reporter activity” value [3, 4] was 0.498 and the “IRF Lucia reporter activity” value ([3]; agonist: LPS (TLR4) 0.1 ug/mL) was 1.49.

With `CC(NCCC(c1ccccc1)c1ccccc1)c1ccccc1.Cl` (stereo unspecified) the “IRF Lucia reporter activity” value [2, 6] was 1.34.

With `CCCCCOc1ccc(-c2ccc(-c3ccc(C(=O)NC4CC(O)C(O)NC(=O)C5C(O)C(C)CN5C(=O)C(C(C)O)NC(=O)C(C(O)C(O)c5ccc(O)cc5)NC(=O)C5CC(O)CN5C(=O)C(C(C)O)NC4=O)cc3)cc2)cc1` (stereo unspecified) the “IRF Lucia reporter activity” value [2, 6] was 0.732.

`CCCCCOc1ccc(-c2ccc(-c3ccc(C(=O)NC4CC(O)C(O)NC(=O)C5C(O)C(C)CN5C(=O)C(C(C)O)NC(=O)C(C(O)C(O)c5ccc(O)cc5)NC(=O)C5CC(O)CN5C(=O)C(C(C)O)NC4=O)cc3)cc2)cc1` (stereo unspecified) (library stock concentration (final ~1000-fold dilution): 10 mM) was tested, and the “IRF Lucia reporter activity” value [3, 4] was 0.449 and the “IRF Lucia reporter activity” value ([3]; agonist: LPS (TLR4) 0.1 ug/mL) was 1.32.

`COc1cc2ccc(=O)oc2cc1O` was tested, and the “IRF Lucia reporter activity” value [2, 5] was 0.923.

For `COc1cc2ccc(=O)oc2cc1O` (library stock concentration (final ~1000-fold dilution): 10 mM), the “IRF Lucia reporter activity” value [1, 4] was 0.959 and the “IRF Lucia reporter activity” value ([1]; agonist: LPS (TLR4) 0.1 ug/mL) was 1.17.

With `CCNc1nc(Nc2cc(F)c(C(=O)N3CCOCC3)cc2OC)ncc1C(F)(F)F` (library stock concentration (final ~1000-fold dilution): 10 mM) the “IRF Lucia reporter activity” value [1, 4] was 1.21 and the “IRF Lucia reporter activity” value ([1]; agonist: LPS (TLR4) 0.1 ug/mL) was 0.644.

`CCNc1nc(Nc2cc(F)c(C(=O)N3CCOCC3)cc2OC)ncc1C(F)(F)F` was tested, and the “IRF Lucia reporter activity” value [2, 5] was 0.824.

With `CCCCCCOc1cc(C)c(O)c(C)c1C` (library stock concentration (final ~1000-fold dilution): 10 mM) the “IRF Lucia reporter activity” value [3, 4] was 0.0152 and the “IRF Lucia reporter activity” value ([3]; agonist: LPS (TLR4) 0.1 ug/mL) was 0.0158.
